Measured values taken from the supplement of paper PMC12217912.
The list shows a part of the results. The full chains were built here from the parent and the listed change. Values near 0.05 are background.

B1: TEV protease; numbered along this chain (parent)
chain: MGESLFKGPRDYNPISSSICHLTNESDGHTTSLYGIGFGPFIITNKHLFRRNNGTLVVQSLHGVFKVKDTTTLQQHLVDGRDMIIIRMPKDFPPFPQKLKFREPQREERICLVTTNFQTKSMSSMVSDTSCTFPSGDGIFWKHWIQTKDGQCGSPLVSTRDGFIVGIHSASNFTNTNNYFTSVPKNFMELLTNQEAQQWVSGWRLNADSVLWGGHKVFMVKPEEPFQPVKEATQL

Variants of: B1
Test: raw area under fraction-flipped curve 0-4 h after induction (AUC4h, not background-subtracted), DNA-recorder readout of cleavage of the substrate (dimensionless); higher = more cleavage of the substrate by the protease variant
Conditions: temperature: 34 °C; time window: 0-4 h after rhamnose induction
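Also: Bxb1 expression induced with 0.2% (w/v) L-rhamnose at OD600 near 0.5, cultures sampled hourly, flipped fraction per protease–substrate barcode pair counted by paired-end Illumina sequencing.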

Variant | area with substrate ENLDFQS | area with substrate ENLEFQS | area with substrate ENLFFQS | area with substrate ENLGFQS | area with substrate ENLHFQS | area with substrate ENLKFQS | area with substrate ENLLFQS | area with substrate ENLMFQS | area with substrate ENLNFQS | area with substrate ENLSFQS | area with substrate ENLWFQS | area with substrate ENLCFQS | area with substrate ENLIFQS | area with substrate ENLPFQS | area with substrate ENLQFQS | area with substrate ENLRFQS | area with substrate ENLVFQS | area with substrate ENLTFQS
H47R | 0.0641 | 0.0761 | 0.0628 | 0.0609 | 0.0691 | 0.0574 | 0.0504 | 0.0664 | 0.0629 | 0.0675 | 0.0417 | – | – | – | – | – | – | –
P155F | 0.0551 | 0.0642 | – | 0.0452 | 0.0572 | 0.0644 | – | – | 0.0602 | 0.0517 | 0.0549 | 0.0721 | 0.0458 | 0.0534 | 0.0665 | 0.0568 | – | –
M219L | 0.0547 | 0.0571 | 0.0838 | – | 0.0865 | 0.0976 | 0.0731 | – | 0.0768 | 0.0483 | – | 0.0501 | – | 0.0678 | – | – | 0.118 | –
M219R | 0.0628 | 0.0759 | 0.0821 | 0.0614 | 0.0728 | 0.0532 | 0.0688 | – | 0.0705 | – | 0.0792 | 0.0567 | 0.0565 | 0.0687 | – | 0.058 | – | –
P222M | 0.0647 | 0.0664 | 0.0748 | 0.0626 | – | 0.0814 | 0.0743 | 0.0557 | 0.0613 | – | – | 0.0994 | 0.0275 | 0.0702 | 0.0707 | 0.063 | 0.0662 | 0.0802
K230G | – | – | 0.0808 | 0.0636 | 0.0616 | 0.0867 | 0.0645 | – | 0.0556 | 0.0625 | 0.0875 | 0.0776 | 0.101 | – | – | 0.0868 | 0.0928 | –
T71A | 0.0589 | – | 0.0816 | 0.075 | 0.0509 | 0.0675 | 0.0676 | 0.0701 | 0.0618 | 0.061 | 0.0587 | – | 0.0754 | 0.0571 | – | 0.0716 | 0.0918 | –
E189V | 0.0687 | – | 0.0637 | – | 0.0545 | 0.0776 | – | 0.072 | 0.0627 | 0.0723 | – | 0.0778 | 0.0761 | 0.0608 | 0.0633 | 0.0625 | 0.108 | 0.0473
Q198V | 0.0706 | – | 0.0988 | – | 0.0821 | – | – | – | – | – | 0.065 | 0.109 | 0.0916 | 0.0672 | 0.0598 | – | – | 0.0757
V183I | – | – | – | – | 0.095 | 0.0651 | 0.0564 | – | 0.0634 | – | 0.0635 | 0.0507 | 0.0777 | 0.0721 | 0.0706 | 0.0359 | 0.0795 | 0.0999
G153N | 0.0572 | 0.065 | 0.0246 | – | 0.0572 | – | 0.0439 | – | 0.0479 | – | 0.0592 | 0.0528 | 0.0212 | 0.04 | – | – | – | –
V57M | 0.0539 | 0.0621 | 0.0855 | 0.0699 | 0.056 | 0.0707 | 0.0925 | 0.0937 | – | – | 0.0626 | – | 0.0446 | 0.0578 | 0.0481 | 0.0737 | 0.0582 | –
K221T | 0.0642 | 0.0605 | 0.0703 | 0.0649 | 0.0557 | 0.0709 | 0.07 | – | 0.0542 | 0.0595 | 0.0575 | 0.0641 | 0.0736 | 0.0766 | 0.0728 | – | 0.069 | –
T192D | 0.0636 | – | 0.0759 | – | 0.0766 | 0.0789 | – | 0.066 | 0.0722 | – | – | 0.0902 | – | 0.0637 | – | 0.0652 | – | –
